PubChem BioAssay AID624417 (National Center for Advancing Translational Sciences (NCATS), 2012)
About 6,400 (1.6%) of roughly 410,000 compounds were called active. Inconclusive results, whose numbers are uncertain, are shown with a selection of clear calls. Calls follow the shape of the dose curve; as a rule, active = well fitted inhibition curve with a large enough effect; inconclusive = small, poorly fitted or top-dose-only effect; inactive = no such curve, though single readings can be large or run the other way. No potency is given beside an inconclusive call; the fits are too rough.
% is scaled to controls: 0 for no effect and ±100 for the full control effect; potency is read from the fitted curve at half-maximal effect; tags tell the direction and shape of the fitted curve.
Also: nearly all actives have a fitted effect of over 55% in size.

These molecules were tested against Glucagon-like peptide 1 receptor (Homo sapiens) (UniProt P43220) (assay: qHTS of GLP-1 Receptor Inverse Agonists (Inhibition Mode)). Settings: HEK293 GLP-1R CRE-luciferase, luminescence, 24 h, GLP-1R form is constitutively active; activity change, negative = inhibition: at 38.3 µM (top of the series) unless noted.
UniProt P43220, sequence (P43220 whole entry, looked up): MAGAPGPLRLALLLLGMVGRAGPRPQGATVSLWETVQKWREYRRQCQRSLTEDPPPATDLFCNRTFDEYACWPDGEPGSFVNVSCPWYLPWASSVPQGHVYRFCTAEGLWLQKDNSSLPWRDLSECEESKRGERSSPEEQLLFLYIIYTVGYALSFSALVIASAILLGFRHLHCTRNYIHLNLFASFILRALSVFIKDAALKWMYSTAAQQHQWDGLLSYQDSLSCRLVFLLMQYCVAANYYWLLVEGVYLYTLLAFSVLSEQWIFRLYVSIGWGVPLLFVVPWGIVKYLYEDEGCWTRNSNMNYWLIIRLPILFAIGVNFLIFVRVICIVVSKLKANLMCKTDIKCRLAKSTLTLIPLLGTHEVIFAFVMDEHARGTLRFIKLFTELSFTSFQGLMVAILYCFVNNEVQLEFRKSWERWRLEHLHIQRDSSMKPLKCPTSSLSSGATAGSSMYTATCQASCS
How it was run: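 Seeding at 200 cells/uL, 12 h culture, 24 hr compound treatment, then luciferase reagent and a luminescence read; cells are HEK293 stably expressing a constitutively active GLP-1R plus cAMP-responsive luciferase.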
`CC1=C(C#N)C(C)C2=C(CC(C)(C)CC2=O)N1` (stereo not drawn) was tested, and the Potency was inconclusive [inhibitor, partial curve, poor fit].
In the case of `Cc1ccc(S(=O)(=O)N2CCOC23CCN(C(=O)C(=O)NCCC(C)C)CC3)cc1`, the Potency is reported as inconclusive [inhibitor, single point].
In the case of `O=c1[nH]c(CN(CCO)CCO)nc2c1C1(CCCCC1)Cc1ccccc1-2`, the Potency is reported as inconclusive [inhibitor, partial curve, poor fit].
In the case of `COc1ccc(-c2nc3ccc(Br)cn3c2Cc2ccc(C)cc2)cc1OC`, the “activity change, negative = inhibition” value is reported as inactive: 2.33%.
`O=C(COc1ccccc1/C=C1\SC(=S)NC1=O)Nc1ccc(F)cc1` was tested, and the Potency was inconclusive [inhibitor, single point].
With `COc1ccc(S(=O)(=O)NCC2CCCN(C(=O)c3cccs3)C2)cc1` (stereo not drawn) the “activity change, negative = inhibition” value was inactive: -0.886%.
With `COCCn1c(C)cc(C(=O)COC(=O)c2ccc(NC(=O)CC#N)cc2)c1C` the “activity change, negative = inhibition” value was inactive: -11.1%.
`COc1cc(OC)nc(Oc2ccccc2C=O)n1` was tested, and the Potency was inconclusive [inhibitor, single point].
In the case of `COc1ccc(CN2CCN(Cc3ccc4ccccc4c3)CC2)cc1OC`, the activity change, negative = inhibition is reported as inconclusive: -73.4% [inhibitor].
In the case of `CCCCNc1nc2ccccc2n1CC(=O)Nc1c(C)cccc1CC`, the Potency is reported as inconclusive [inhibitor, partial curve, poor fit].
For `C=C(C(=O)c1ccccc1)C(C)C(=C)C(=O)c1ccccc1`, the Potency was inconclusive [inhibitor, partial curve, poor fit].
For `CC(=O)CSc1ccc(-c2nc3cc(C)c(C)cc3[nH]2)cn1`, the Potency was inconclusive [inhibitor, full curve, poor fit].
For `N#CC1=C(N)Oc2cc(N)ccc2C1C1CC=CCC1` (stereo not drawn), the Potency was inconclusive [inhibitor, full curve, poor fit].
With `O=C1c2ccccc2C(=O)C1c1ccc2ccccc2n1` the Potency was inconclusive [inhibitor, full curve, poor fit].
`Cc1nc(-c2ccc(S(=O)(=O)Oc3ccc(Cl)cc3Cl)s2)cs1` was tested, and the Potency was inconclusive [inhibitor, partial curve, poor fit].
With `O=S(=O)(NCC(c1cccnc1)N1CCN(c2ccc(F)cc2)CC1)c1ccc(F)cc1` (stereo not drawn) the Potency was inconclusive [inhibitor, single point].
With `COc1cccc(-c2noc(CCC(=O)N3CCN(c4cc(C)ccc4C)CC3)n2)c1` the Potency was inconclusive [inhibitor, partial curve, poor fit].
In the case of `CCN(CC)C(=O)c1ccc2c(=O)n(Cc3ccc4c(c3)OCO4)c(=S)[nH]c2c1`, the Potency is reported as inconclusive [inhibitor, single point].
